# Several values for one entry are separate records, joined by “and”; a condition that tells them apart may be missing. Equal values may be shown once. This list was built around the results that the source calls inconclusive (neither active nor inactive); the mix of calls is not that of the screen. For part of these data: Potencies of inconclusive entries are doubtful fits and often do not repeat. The source holds several records for some structures; these can differ, active in one and inactive in another. Activity calls are given as the source filed them. Unless noted, calls come from the whole dose curve; as a rule, active = well fitted curve in the direction sought with a large enough effect in the repeat runs; inconclusive = weak or mixed curves; inactive = no such curve, though single readings can be large; an effect the other way counts as inactive or inconclusive.
# Assays:
# [1] = qHTS assay to identify small molecule antagonists of the androgen receptor (AR) signaling pathway using the MDA cell line in the presence of 0.5 nM R1881 - cell viability counter screen (AID 1259242); note: nearly all actives have a fitted effect of over 45% in size
# Summary of the method: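 Human breast carcinoma MDA-kb2 cells, cultured without CO2, receive compounds alongside 0.5 nM (final) R1881 agonist. After 16 hr at 37C, viability is taken as live-cell protease signal.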
# [2] = target: Estrogen receptor (Homo sapiens) (UniProt P03372); assay: qHTS assay to identify small molecule antagonists of the estrogen receptor alpha (ER-alpha) signaling pathway using the BG1 cell line in the presence of 0.1 nM 17-beta-estradiol (AID 1259244); note: nearly all actives have a fitted effect of over 50% in size
# Summary of the method: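 Seeding of stripped-serum-adapted VM7Luc4E2 cells, 24 h attachment, compound transfer, then 0.1 nM final 17beta-estradiol; after 22 h incubation, ONE-Glo reagent and luminescence reading.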
# [3] = qHTS assay to identify small molecule agonists of the sonic hedgehog signaling (Shh) pathway - cell viability counter screen (AID 1259366); note: nearly all actives have a fitted effect of over 50% in size
# Summary of the method: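 Fluorescence from CellTiter-Fluor reports live cells in this counter screen. NIH/3T3-derived Gli1-Luc reporter cells receive test compounds for 24hr at 37C; reagent goes in at 23hr.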
# [4] = qHTS assay to identify small molecule antagonists of the sonic hedgehog signaling (Shh) pathway - cell viability counter screen (AID 1259367); note: nearly all actives have a fitted effect of over 55% in size
# Summary of the method: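 CellTiter-Fluor signal in conditioned medium-stimulated 3T3 Gli1-Luc cells, 23 hr compound exposure, 37C.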
# [5] = qHTS assay to identify small molecule antagonists of the sonic hedgehog signaling (Shh) pathway (AID 1259369; calls by dose curve; note: nearly all actives have a fitted effect of over 45% in size)
# Summary of the method: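 Gli1 transcriptional reporter (firefly Luc) in NIH/3T3 background, conditioned-medium activated. 24hr exposure, luminescence endpoint.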
# [6] = qHTS assay to identify small molecule HDAC inhibitors (AID 1259364);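 note: wild-type HCT-116 cells with endogenous class I/II HDAC activity; nearly all actives have a fitted effect of over 45% in size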
# Summary of the method: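 After a 2 hr compound incubation (37C, 5% CO2), HCT-116 cells seeded at 1,500/well the day before received HDAC-Glo reagent; signal read as luminescence after 30 min at room temperature.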
# [7] = qHTS assay to identify small molecule phospholipidosis (PLD) inducers (AID 1259344; active = well fitted curve in the direction sought with a large enough effect; inconclusive = small, poorly fitted or top-dose-only effect, or another doubt; inactive = no such curve, though single readings can be large; an effect the other way counts as inactive or inconclusive)
# Summary of the method: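 Accumulated phospholipid, stained red by LipidTOX during 24 h compound treatment of HepG2 cells at 37 C, is quantified from images as pit number and intensity, normalised per cell using Hoechst-stained nuclei.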
# [8] = qHTS assay to identify small molecule HDAC inhibitors - cell viability counter screen (AID 1259365); note: nearly all actives have a fitted effect of over 50% in size
# Summary of the method: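 To flag cytotoxic hits, 1,500 wild-type HCT-116 cells per well, plated the day before, receive test compounds for 2hr at 37 C before CellTiter-Glo reagent and a luminescence read.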
# Potency is the fitted concentration of half-maximal effect; tags give direction and shape of the fitted curve.
# Sequence of UniProt P03372 (P03372 whole entry, looked up): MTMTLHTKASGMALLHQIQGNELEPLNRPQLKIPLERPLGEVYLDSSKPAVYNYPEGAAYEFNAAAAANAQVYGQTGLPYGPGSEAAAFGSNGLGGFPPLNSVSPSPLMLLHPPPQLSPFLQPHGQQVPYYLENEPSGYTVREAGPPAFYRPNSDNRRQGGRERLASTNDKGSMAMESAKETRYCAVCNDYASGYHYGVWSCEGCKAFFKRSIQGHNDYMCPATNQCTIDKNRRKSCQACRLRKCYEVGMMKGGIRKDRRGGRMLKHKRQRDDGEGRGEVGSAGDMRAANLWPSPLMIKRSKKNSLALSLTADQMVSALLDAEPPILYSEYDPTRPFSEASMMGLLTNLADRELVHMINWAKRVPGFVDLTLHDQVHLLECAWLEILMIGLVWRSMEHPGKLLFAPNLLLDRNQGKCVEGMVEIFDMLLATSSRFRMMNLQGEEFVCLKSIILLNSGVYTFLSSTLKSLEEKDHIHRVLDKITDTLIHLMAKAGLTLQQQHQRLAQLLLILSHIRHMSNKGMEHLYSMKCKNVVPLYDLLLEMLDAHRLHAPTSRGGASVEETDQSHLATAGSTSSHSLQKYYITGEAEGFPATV
smiles,measurement,setting,value
Cc1ccc(N/N=c2\c(=O)cc/c(=N\Nc3ccc(S(=O)(=O)O)cc3)c2=O)c(C)c1,Potency,[1],active: 48.6 µM
same,Potency,[2],"inconclusive: 54.5 µM [inhibitor, partial curve, poor fit]"
same,Potency,[3],active: 30.6 µM
CNC(=O)c1cc(Oc2ccc(NC(=O)Nc3ccc(Cl)c(C(F)(F)F)c3)cc2)ccn1,Potency,[1],active: 26.6 µM
same,Potency,[2],active: 26.6 µM
same,Potency,[3],"inconclusive: 4.73 µM [rising, partial curve, poor fit]"
same,Potency,[4],inconclusive: 33.5 µM [cytotoxic]
same,Potency,[5],active: 26.6 µM
Nc1ccc2cc3ccccc3cc2c1,Potency,[1],inactive
same,Potency,[6],"inconclusive: 62.2 µM [inhibitor, partial curve, poor fit] and inconclusive: 54.5 µM [inhibitor, partial curve]"
same,Potency,[3],"inconclusive: 22.1 µM [rising, full curve] and inconclusive: 27.3 µM [rising, full curve]"
same,Potency,[5],"inconclusive: 15.6 µM [inhibitor, full curve]"
C=C(CC)C(=O)c1ccc(OCC(=O)O)c(Cl)c1Cl,Potency,[1],inconclusive: 60.7 µM [cytotoxic]
same,Potency,[6],"inconclusive: 54.1 µM [inhibitor, partial curve, poor fit]"
same,Potency,[4],active: 60.7 µM and inactive
same,Potency,[5],"inconclusive: 9.62 µM [inhibitor, full curve]"
NCCc1ccc(O)c(O)c1,Potency,[1],"inconclusive: 54.6 µM [cytotoxic, partial curve]"
same,Potency,[3],active: 24.4 µM
same,Potency,[4],active: 30.7 µM
same,Potency,[5],"active: 866 nM and inconclusive: 26.6 µM [inhibitor, single point]"
COc1cccc2c1C(=O)c1c(O)c3c(c(O)c1C2=O)C[C@@](O)(C(=O)CO)C[C@@H]3O[C@H]1C[C@H](N)[C@H](O[C@@H]2CCCCO2)[C@H](C)O1,Potency,[1],"inconclusive: 26.6 µM [cytotoxic, partial curve]"
same,Potency,[6],active: 11.9 µM
same,Potency,[3],active: 11.9 µM
same,Potency,[4],active: 11.9 µM
same,Potency,[5],"inconclusive: 0.0422 µM [inhibitor, full curve]"
CNCCCC12CCC(c3ccccc31)c1ccccc12,Potency,[1],active: 54.5 µM
same,Potency,[7],active: 7.94 µM
same,Potency,[3],"inconclusive: 33.5 µM [cytotoxic, partial curve, poor fit]"
same,Potency,[5],"active: 5.45 µM and inconclusive: 29.8 µM [inhibitor, partial curve]"
Nc1ccc(O)c(N)c1,Potency,[1],"inconclusive: 60.7 µM [cytotoxic, partial curve, poor fit]"
same,Potency,[3],"inconclusive: 48.2 µM [cytotoxic, partial curve, poor fit] and inconclusive: 77 µM [cytotoxic, single point]"
same,Potency,[4],"inconclusive: 48.2 µM [cytotoxic, partial curve] and inconclusive: 77 µM [cytotoxic, partial curve, poor fit]"
CCN(Cc1cccc(S(=O)(=O)O)c1)c1ccc(C(=C2C=CC(=[N+](CC)Cc3cccc(S(=O)(=O)O)c3)C=C2)c2ccccc2S(=O)(=O)[O-])cc1,Potency,[1],"inconclusive: 27.4 µM [cytotoxic, partial curve]"
same,Potency,[8],active: 12.2 µM
same,Potency,[5],active: 3.08 µM
C[n+]1c2cc(N)ccc2cc2ccc(N)cc21 (tested in a mixture with another compound),Potency,[1],"inconclusive: 26.6 µM [rising, partial curve]"
same,Potency,[3],"inconclusive: 10.6 µM [rising, partial curve]"
same,Potency,[4],"inconclusive: 9.44 µM [rising, partial curve]"
same,Potency,[5],"inconclusive: 33.5 µM [inhibitor, single point]"
CCCCCCCCCCCCCCCC[N+](C)(C)CCN(Cc1ccc(OC)cc1)c1ncccn1,Potency,[1],"inconclusive: 33.5 µM [cytotoxic, single point]"
same,Potency,[8],"inconclusive: 29.8 µM [cytotoxic, partial curve, poor fit]"
same,Potency,[3],"inconclusive: 33.5 µM [cytotoxic, single point]"
same,Potency,[4],"inconclusive: 33.5 µM [cytotoxic, single point]"
OCCOCCN1CCN(C(c2ccccc2)c2ccc(Cl)cc2)CC1 (stereo not given),Potency,[1],"inconclusive: 67.7 µM [cytotoxic, single point]"
same,Potency,[3],"active: 26.9 µM and inconclusive: 15 µM [cytotoxic, partial curve, poor fit]"

# Reference: PubChem BioAssay (Tox21)
